In the experiment the test system is NCI-H322M lung. In words: NCI tumour cell line growth inhibition, 48 h.

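Tested at 5 concentrations; 48 h exposure; 96-well plates; endpoints linearly interpolated, else capped at highest concentration. GI50 is the concentration that inhibits growth by half. TGI denotes the concentration required for complete inhibition of growth.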

For `Clc1ccccc1Nc1nnc(-c2c[nH]c3ccccc23)o1`, the GI50 was 4.39 µM and the TGI was more than 100 µM.

As for `COc1ccccc1/C=C/C(=O)c1ccc(OC)c(S(N)(=O)=O)c1`, the GI50 was 3.19 µM and the TGI stood at 12.8 µM.

For the molecule `CSc1ccccc1NC(=O)c1ccc2nn(/C(C#N)=C/c3ccccn3)nc2c1`, the GI50 was 13.8 µM and the TGI was 27.2 µM.
